From PubChem BioAssay AID504332 (National Center for Advancing Translational Sciences (NCATS), 2011)
Several values for one entry are separate records, joined by “and”; a condition that tells them apart may be missing. Equal values may be shown once. Out of some 350,000 compounds screened, about 31,000 (8.9%) were called active. The inconclusive results got no clear call from the source; some entries with a clear call stand among them for comparison. Calls follow the shape of the dose curve; as a rule, active = well fitted inhibition curve with a large enough effect; inconclusive = small, poorly fitted or top-dose-only effect; inactive = no such curve, though single readings can be large or run the other way. A potency beside an inconclusive call is a rough fit, not a confirmed value.

Target: Histone-lysine N-methyltransferase EHMT2 (Homo sapiens) (UniProt Q96KQ7)
Chain of UniProt Q96KQ7 (Q96KQ7 whole entry, looked up): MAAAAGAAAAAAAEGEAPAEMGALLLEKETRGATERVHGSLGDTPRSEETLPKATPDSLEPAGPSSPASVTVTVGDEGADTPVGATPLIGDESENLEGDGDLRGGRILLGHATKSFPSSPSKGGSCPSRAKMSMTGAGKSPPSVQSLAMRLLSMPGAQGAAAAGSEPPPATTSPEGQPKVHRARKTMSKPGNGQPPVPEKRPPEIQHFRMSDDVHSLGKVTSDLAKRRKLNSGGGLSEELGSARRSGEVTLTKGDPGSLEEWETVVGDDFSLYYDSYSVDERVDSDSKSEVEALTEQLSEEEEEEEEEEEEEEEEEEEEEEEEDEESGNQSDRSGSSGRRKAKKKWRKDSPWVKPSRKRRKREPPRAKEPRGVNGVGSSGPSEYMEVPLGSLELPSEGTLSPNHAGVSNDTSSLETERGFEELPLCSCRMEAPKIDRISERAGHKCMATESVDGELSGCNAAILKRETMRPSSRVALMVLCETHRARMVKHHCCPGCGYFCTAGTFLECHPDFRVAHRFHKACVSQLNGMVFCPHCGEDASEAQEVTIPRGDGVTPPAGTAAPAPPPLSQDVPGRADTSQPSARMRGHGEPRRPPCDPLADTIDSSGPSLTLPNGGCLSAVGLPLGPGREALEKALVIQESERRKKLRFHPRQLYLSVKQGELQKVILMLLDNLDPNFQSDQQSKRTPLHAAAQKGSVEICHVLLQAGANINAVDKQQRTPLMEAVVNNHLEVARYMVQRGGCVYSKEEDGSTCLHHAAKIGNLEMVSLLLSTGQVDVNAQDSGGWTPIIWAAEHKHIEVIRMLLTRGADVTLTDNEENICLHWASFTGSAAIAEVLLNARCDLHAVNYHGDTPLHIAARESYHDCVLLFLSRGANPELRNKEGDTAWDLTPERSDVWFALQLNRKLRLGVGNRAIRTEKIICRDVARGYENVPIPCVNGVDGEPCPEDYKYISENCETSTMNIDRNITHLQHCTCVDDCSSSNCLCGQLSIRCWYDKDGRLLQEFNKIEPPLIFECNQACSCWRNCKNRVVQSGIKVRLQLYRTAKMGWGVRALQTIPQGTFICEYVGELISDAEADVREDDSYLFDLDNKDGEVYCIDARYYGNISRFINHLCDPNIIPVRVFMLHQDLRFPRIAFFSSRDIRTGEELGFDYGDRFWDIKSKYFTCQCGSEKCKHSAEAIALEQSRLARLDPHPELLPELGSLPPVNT
Test: qHTS Assay for Inhibitors of Histone Lysine Methyltransferase G9a; also: nearly all actives have a fitted effect of over 75% in size
Details: G9a H3K9 monomethylation, AlphaScreen, 2 h; activity, negative = inhibition: at 59 µM (top of the series) unless noted
In short: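 Readings reflect AlphaScreen signal from monomethyl-H3K9 antibody detection. HMT at 20 nM; substrate b-H3K9 500 nM; cofactor SAM 20 uM; 2 h RT reaction; compounds tested as titrations in qHTS with 15 min preincubation.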
% is scaled to controls: 0 for no effect and ±100 for the full control effect; potency is read from the fitted curve at half-maximal effect; tags tell the direction and shape of the fitted curve.

SMILES	Potency	activity, negative = inhibition
CCOC(=O)N/N=C/c1c(F)c(F)c(F)c(F)c1F	inconclusive: 10 µM [inhibitor, partial curve, poor fit]	
CCC(C)NC(=O)CS(=O)Cc1nc(-c2cccc(OC)c2)oc1C (stereo unspecified)	inconclusive: 100 µM [inhibitor, single point]	
Cc1ccc(NC(=O)c2ccc(S(=O)(=O)N3CCCC3)cc2)nc1		inactive: 6.69% [at 102 µM]
O=C(Nc1nnc(C2=COCCO2)o1)c1ccc(S(=O)(=O)N2CCOCC2)cc1	active: 50.1 µM	
NC(=O)[C@@H]1CCCNc2c(F)cc([N+](=O)[O-])cc2C(=O)N[C@@H](CO)C(=O)NCC(=O)N1	inconclusive: 89.1 µM [inhibitor, single point]	
Cc1noc(C)c1C(=O)Nc1ccccn1		inconclusive: -52.2% [inhibitor] [at 12.7 µM]
COCCn1c(C)cc(C2=NNC(=Nc3ccc(Cl)cc3Cl)SC2)c1C		inconclusive: -83.5% [inhibitor]
COc1cccc(N2CCc3c(C)nc4ccc(Cl)cc4c32)c1		inactive: 40.7% [at 102 µM]
Cn1c(=O)c2c(nc(SCc3nn[nH]n3)n2Cc2ccccc2F)n(C)c1=O	inconclusive: 8.91 µM [inhibitor, full curve, poor fit]	
Cc1cccc(CN2C[C@]34C=C[C@@H](C[C@@H]3S2(=O)=O)O4)c1	inconclusive: 1.41 µM [inhibitor, single point]	
COc1cccc(OCCn2cccc2/C=C2/C(=N)N3OC(C)=CC3=NC2=O)c1	active: 17.8 µM	
CCN1CCN(Cc2ccc(NC(=O)Nc3ccc(SC)cc3)cc2)CC1		inconclusive: -57.6% [inhibitor]
O=C(Oc1ccc(O)cc1)C12CC3CC(CC(C3)C1)C2	active: 39.8 µM	
COC(=O)c1ccc(CNC(=O)COC(=O)c2ccccc2-c2ccccc2)cc1		inactive: -2.73% [at 102 µM]
Nc1ccc(/C=C/c2ccc(N)cc2S(=O)(=O)O)c(S(=O)(=O)O)c1	inconclusive: 2 µM [inhibitor, partial curve, poor fit]	
COc1ccc(/C=C/C(=O)c2cc(O)ccc2O)cc1		inconclusive: -54.3% [inhibitor] [at 2.33 µM]
Cc1cc(N=NC(=O)c2ccccc2O)c2ccccc2c1O		inactive: -3.94% [at 102 µM]
CCC(C)n1ncn(-c2ccc(N3CCN(c4ccc(OCC5COC(Cn6cncn6)(c6ccc(Cl)cc6Cl)O5)cc4)CC3)cc2)c1=O (stereo unspecified)	inactive and inconclusive: 1.58 µM [inhibitor, full curve]	
COc1cc(C)c(Br)cc1S(=O)(=O)NCc1ccccc1	inconclusive: 89.1 µM [inhibitor, single point]	
COc1cccc(CN(C)CC(=O)NC(=O)NCc2ccccc2)c1	inconclusive: 6.31 µM [inhibitor, single point]	
CCCCn1c(N)c(N(CC(C)C)C(=O)CSCc2cccc(C)c2)c(=O)[nH]c1=O	inconclusive: 89.1 µM [inhibitor, partial curve, poor fit]	
CC(C)c1ccc(NC2CCCN(C(=O)CCCn3cncn3)C2)cc1 (stereo unspecified)	inconclusive: 70.8 µM [inhibitor, single point]	
COc1cccc(CN2CCN(Cc3cccc4nonc34)CC2CCO)c1 (stereo unspecified)		inactive: -2.12% [at 102 µM]

SMILES	Potency	activity, negative = inhibition
Cc1cccc(OCC(=O)Nc2c(C(=O)N3CCN(c4ccccc4F)CC3)oc3ccccc23)c1	inconclusive: 8.91 µM [inhibitor, partial curve]	
O=C(/C=C\Nc1ccc2c(c1)OCO2)c1cccs1	inconclusive: 79.4 µM [inhibitor, partial curve, poor fit]	
COc1ccccc1NCc1cccn1-c1nnc(N2CCCCCC2)s1	inconclusive: 14.1 µM [inhibitor, partial curve]	
COc1ccccc1N1CCN(CC(=O)Nc2ccccc2C(=O)NC(C)c2ccccc2)CC1 (stereo unspecified)	inconclusive: 35.5 µM [inhibitor, single point]	
COCCN1CN=C(Nc2nc3ccccc3o2)NC1	active: 70.8 µM	
CC(C)Nc1nc(NC(C)C)nc(N(C)C(N)=O)n1	inconclusive: 56.2 µM [inhibitor, partial curve]	
COc1ccc(NC(=O)CSc2ccc(-c3ccco3)nn2)c(OC)c1	inconclusive: 63.1 µM [inhibitor, single point]	
COC(=O)COc1ccc2cccc(-n3cnnn3)c2c1		inactive: 25.6%
CCS(=O)(=O)NCC(c1cccnc1)N1CCN(c2ccc(OC)cc2)CC1 (stereo unspecified)	inconclusive: 79.4 µM [inhibitor, single point]	
Cc1ccc(CNC(=O)Nc2cccs2)cc1	inconclusive: 12.6 µM [inhibitor, single point]	
Cc1nc2ccccn2c1C(=O)NCC(C)C	inconclusive: 100 µM [inhibitor, single point]	
Cc1cccc(OCC(=O)N/N=C\c2cccn2C)c1C		inactive: -18.7% [at 102 µM]
O=C(Nc1ccccc1)N(Cc1cccs1)c1ccc(F)cc1		inactive: 3.8%
CCCc1nc(N)sc1C(=O)OCC	inconclusive: 17.8 µM [inhibitor, single point]	
Cc1ccccc1-n1ncc2c([N+](=O)[O-])cc([N+](=O)[O-])cc21		inconclusive: -97.9% [inhibitor]
Cc1ccc(NC(=O)N2CCc3cc(S(=O)(=O)N4CCC(C)CC4)ccc32)cc1F		inactive: -14.7%
Cc1ccc(S(=O)(=O)N2CCCCC2)cc1NC(=O)c1cnccn1		inactive: -32.3% [at 102 µM]
COc1ccc(-c2cc3ccccc3oc2=O)cc1NC(=O)c1ccc(Br)o1	inconclusive: 50.1 µM [inhibitor, partial curve, poor fit]	
CCCn1c(SCCC(=O)O)nc2ccccc21		inactive: 3.6% [at 102 µM]
CCCN(C(=O)c1cc2c(=O)oc3ccccc3c2s1)c1cccc(Cl)c1		inactive: -2.46%
O=C1CCC/C1=c1\s/c(=C\c2cccnc2)c(=O)n1-c1ccccc1	inconclusive: 89.1 µM [inhibitor, single point]	
O=S(=O)(CCOc1ccccc1)N1CCOCC1	active: 79.4 µM	
CCOC(=O)C(CC(C)C)CP(=O)(O)CNC(=O)OCc1ccccc1 (stereo unspecified)	inconclusive: 56.2 µM [inhibitor, partial curve]	
